The values below come from ChEMBL document CHEMBL4888484, “Replenishing the malaria drug discovery pipeline: Screening and hit evaluation of the MMV Hit Generation Library 1 (HGL1) against asexual blood stage Plasmodium falciparum ,using a nano luciferase reporter read-out” (2022).

About 540 (0.36%) of roughly 150,000 compounds showed an effect of 50% or more. The list shows a part of the results.

In the assay the test system is Plasmodium falciparum. Nature of the assay: Primary screen in NF54 nanoGlo assay, in single point, at 2uM, 72h; a lower Z score goes with more inhibition. Type of assay: functional, Erythrocyte. Conditions: timepoint 72 hour.
For `O=C(Nc1ccc(Oc2cccc3[nH]ccc23)nc1)c1ccsc1`, the % Inhibition (usually the relative decrease from the control value, in per cent) is reported as -23% and the Z score amounted to 3.32.
Consider `O=C(c1ccc2nsnc2c1)N1CCC(COCc2ccccc2)CC1`, for which the “% Inhibition” value is recorded as -4% and the Z score was 0.54.
The like results for `O=C(CCC1CCN(CCCC2CCCC2)CC1)NC[C@H]1CCCO1` were, in that order, -1% and 0.16.
In the case of `Cc1ccc(CN2CC[C@@H](N3CCN(C(=O)c4cccs4)CC3)CCC2=O)cc1`, the “% Inhibition” value is reported as -10% and the Z score came to 1.27.
The like results for `Cc1cccc([C@H]2CCCN(C(=O)CN3CCCCCC3=O)C2)c1` were, in that order, -6% and 0.7.
The like results for `O=C1NCCCCCN(C(=O)Cc2ccccc2)[C@H]2CCC[C@@H]12` were, in that order, -1% and 0.14.
The like results for `CC(C)[C@H](O)C1(CNc2cccnc2C#N)CC1` were, in that order, -6% and 0.75.
Regarding `CCCS(=O)(=O)N1C[C@H](Nc2ncccn2)[C@@H](C(C)C)C1`, the “% Inhibition” value is on record as -17% and the Z score is recorded as 2.18.
The like results for `C[C@H]1CN(CCO)CCN1C(=O)Nc1ncc(C(C)(C)C)s1` were, in that order, -4% and 0.71.
For `Cc1cc(COc2ccccc2)oc1C(=O)N1CCn2nc([C@H](C)O)cc2C1`, the “% Inhibition” value is reported as -3% and the Z score was 0.59.
The like results for `COCCn1cc(CNc2ncnc3sccc23)cn1` were, in that order, -9% and 1.85.
For `COc1ccnc(CNC(=O)c2cccc(CN3CCCCCC3)c2)c1`, in that order: 0% and 0.09.
Take `FC(F)Oc1ccc([C@@H]2CN(CCc3ccncc3)CCO2)cc1`: the “% Inhibition” value was -8% and the Z score was determined as 1.24.
The like results for `CC(C)(C)c1cc(C(=O)OCc2ccccc2C(N)=O)no1` were, in that order, -9% and 0.74.
For `COc1ccc(NC(=O)C(C(=O)Nc2ccc(OC)cc2)C(=O)Nc2ccc(OC)cc2)cc1`, in that order: 2% and -0.42.
For the molecule `CC(C)c1scnc1C(=O)NCc1ccsc1`, the “% Inhibition” value is reported as -3% and the Z score was 0.52.
For `Cc1cnc(C(=O)N2CCCN(c3ccc(F)c(F)c3)CC2)c(O)c1`, in that order: -7% and 1.48.
The like results for `N#Cc1ccncc1N1CCNC(=O)C1` were, in that order, -6% and 1.01.
For `C#CCOC[C@@H](O)CN(CCCOC)Cc1cccc(C)c1`, in that order: -14% and 2.56.
With `COc1ccccc1/C=C/CN1CCC2(CC1)[C@H](O)C[C@@H]2O`, the “% Inhibition” value is given as -8% and the Z score is given as 1.4.
The like results for `Cc1ccc(C)c(C(=O)Cn2nc3ccc(-c4ccc(Cl)cc4)nn3c2=O)c1` were, in that order, 33% and -0.57.
The like results for `CC(C)c1cc(C(=O)N2CCCC(C)(C)[C@H]2C#N)on1` were, in that order, -14% and 1.28.
The like results for `CCNC(=O)NC(=O)[C@H](C)N(C)Cc1ccoc1C` were, in that order, -13% and 1.28.
`COCc1cccc(C(=O)N2CCC[C@H](c3nccs3)C2)c1`: the “% Inhibition” value was determined as 1% and the Z score is -0.15.
The like results for `C#CCN1Cc2cc(OC)c(OC)cc2C2(CCCC2)C1` were, in that order, -12% and 2.27.
For the molecule `O=C(c1coc(Br)c1)N1CCC[C@H]1c1ncc[nH]1`, the “% Inhibition” value was 2% and the Z score is recorded as -0.38.
As to `Cc1ccc(C(=O)Nc2ccc(C)c(N3C(=O)CNC3=O)c2)cn1`, the “% Inhibition” value is -6% and the Z score worked out at 1.11.
For the molecule `Cc1c(C(=O)N(C)C[C@H]2CCCN(C)C2)cnn1-c1nccc(-c2cccs2)n1`, the “% Inhibition” value is -4% and the Z score worked out at 0.83.
For `O=C(Nc1cccc2ccccc12)N1CCCN(C(=O)C(F)(F)F)CC1`, in that order: -6% and 0.86.
The like results for `CCOC(=O)N1CCC(Nc2nc(-c3cccnc3)nc3c2CCNC3)CC1` were, in that order, -5% and 0.8.
For `O=C(N[C@@H]1C[C@H]2OCC[C@@H]12)c1c[nH]nc1-c1ccccc1`, in that order: -7% and 0.87.
As for `COc1ccccc1CNC(=O)C[C@@H]1[C@H](O)CCC2[C@](C)(CO)[C@H](OC(=O)NC3CCCCC3)CC[C@]21C` (stereo not given in full), the “% Inhibition” value came out at 29% and the Z score is -3.27.
The like results for `CCc1nc(N)nc(N2CCN(Cc3ccncc3)CC2)c1C` were, in that order, -20% and 2.27.
As to `Cn1cccc1C(=O)N1CCN(Cc2cccnc2)[C@@H]2CS(=O)(=O)C[C@@H]21`, the “% Inhibition” value was -12% and the Z score turned out to be 1.49.
For `Cc1nc(C)c(C(=O)N[C@H]2CC=CC[C@@H]2C(N)=O)s1`, in that order: -10% and 1.76.
The like results for `COc1cccc(-c2ncc(CNC(=O)[C@@H]3NCCc4[nH]cnc43)s2)c1` were, in that order, -9% and 0.79.
Take `CCCc1nnc(C(=O)Nc2ccc(C(=O)NCCN3CCN(C)CC3)cc2)s1`: the “% Inhibition” value is given as -14% and the Z score turned out to be 1.66.
Consider `COCCn1cc2c(n1)[C@@H](NC(=O)CNC(=O)c1ccccc1OC)CCC2`, for which the “% Inhibition” value was determined as 1% and the Z score is given as -0.07.
`CCC(=O)N(Cc1csc(COc2ccc(C)c(C)c2)n1)C1CC1`: the “% Inhibition” value was -11% and the Z score stood at 1.04.
For the molecule `CCN(Cc1ccccc1Cl)C[C@H]1CCCN1`, the “% Inhibition” value came out at 4% and the Z score was -0.63.
Regarding `Cc1cc(C)nc(NC[C@H](C)c2nc(C)cs2)n1`, the “% Inhibition” value is listed as -5% and the Z score is on record as 0.64.
On to `Cc1cc(F)ccc1S(=O)(=O)N1CCC[C@H]1c1nccn1C`, for which the “% Inhibition” value is -7% and the Z score is given as 0.84.
The like results for `CN(CCN1CCCCC1=O)Cc1nccs1` were, in that order, -4% and 0.72.
The like results for `O=C(O)[C@H]1CCCN1Cc1ccc(OCc2ccc(F)cc2)cc1` were, in that order, -17% and 2.32.
The like results for `N#Cc1ccc(C(=O)Nc2c(F)cccc2NC2CC2)nc1` were, in that order, -16% and 2.96.
As for `COc1cccc(CNC(=O)CCC(=O)N2Cc3cccn3-c3ccccc32)c1OC`, the “% Inhibition” value is -6% and the Z score stood at 0.64.
The like results for `CCC[C@@H](CNc1nc(C)nc(C)c1C)N(C)C` were, in that order, -7% and 1.26.
The like results for `CN(C1CCCCC1)S(=O)(=O)c1cccc2c1OCCO2` were, in that order, -8% and 0.84.
For `Cc1cc(C(=O)NCCc2nc3c(C)cccc3o2)on1`, the “% Inhibition” value was -9% and the Z score is 1.77.
As to `CCN1CCN(C(=O)CC2CC3CCC2C3)CC1` (stereo not given), the “% Inhibition” value is recorded as -1% and the Z score was found to be 0.18.
The like results for `Cc1ccccc1Cn1nc2c(S(=O)(=O)N3CCc4ccccc4C3)cccn2c1=O` were, in that order, 5% and -0.75.
For `CCn1cc(CN2CCN(c3nccn(C)c3=O)CC2)c(C)n1`, in that order: -10% and 1.08.
The like results for `COC(=O)Cn1c(=O)n(Cc2nc(-c3ccccc3)no2)c(=O)c2ccccc21` were, in that order, 2% and -0.42.
With `Cc1ccc(S(=O)(=O)C2CCCCC2NC[C@@H](C)O)cc1` (stereo not given in full), the “% Inhibition” value was -4% and the Z score is listed as 0.57.
For `C[C@@H](C(=O)Nc1c(F)cccc1F)N1CCC(NS(=O)(=O)c2cccs2)CC1`, in that order: -7% and 0.81.
